In all, about 48,000 compounds went through this assay and about 550 (1.1%) were called active. Roughly 4% stayed inconclusive and do not appear here. Cut-off read from the data, not from the text of the source: active = potency below about 15 µM; inconclusive = mostly about 16 µM to 33 µM; inactive = weaker than that. This is one part of the list.
Target: Lysosomal acid glucosylceramidase (Homo sapiens) (UniProt P04062)
Test: Glucocerebrosidase;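 note: the screen sought inhibitors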
Settings: purified enzyme, resorufin glucoside fluorescence (screen aimed at inhibitors), 20 min; series mostly up to 77 µM
Source text: NCGC Assay Overview: Beta-glucocerebrosidase catalyzes the hydrolysis of beta-glucocerebroside to glucose and ceramide. The inherited deficiency of beta-glucocerebrosidase results in Gaucher disease, which is characterized by a wide variety of symptoms including hepatosplenomegaly, anemia, thrombocytopenia, bony lesions and bone marrow infiltration with characteristic storage cells, known as Gaucher cells. There are also forms of the disorder affecting the central nervous system. Patients with the same genotypes can manifest with diverse clinical presentations and it is believed that improper folding and trafficking of beta-glucocerbrosidase may contribute to the phenotypes observed. Low molecular weight molecules, acting as chaperones, may potentially restore trafficking of misfolded beta-glucocerebrosidase from the endoplasmic reticulum to the lysosomes, thereby enhancing functional lysosomal beta-glucocerebrosidase activity. Using normal beta-glucocerebrosidase, an assay was developed to screen for small molecule inhibitors that could potentially act as molecular chaperones on the mutant forms [developed with NIH investigator Dr. Ellen Sidransky's laboratory]. Two pro-fluorescent substrates were chosen for two screens against a small molecule library. One beta-glucocerebrosidase assay used Resorufin beta-D-Glucopyranoside (Marker Gene Technology Inc.), generating a red fluorescent product. The second assay used Fluorescein di-beta-D-Glucopyranoside, generating a blue fluorescent product. […] The IC50 values of Conduritol B Epoxide, a known glucocerebrosidase inhibitor, were determined to be 87.5 uM and 117 uM, respectively. The use of two difference pro-fluorescent substrates in the screens helped to eliminate false positives. All compounds were screened in a titration series resulting in AC50s (e.g., IC50s or EC50s).
NCGC Assay Protocol Summary: Both enzyme and substrate were diluted in buffer composed of 50mM citric acid/KH2PO4, 10mM sodium taurocholate and 0.01% tween-20 at pH 5.9. The final concentration of the enzyme was 0.2 nM in both assays. The compound library was titrated in 7 to 15 concentrations for the primary screens with a final concentration ranging from 0.6 nM to 50 uM. This particular assay protocol is for the "red" substrate, and it was performed in 1536-well plate format as follows: Red fluorescence substrate assay: 2 uL enzyme 23 nL compound 1 uL substrate (final concentration of 30 uM) Incubate at room temperature (RT) for 20 minutes Read the plate in Viewlux plate reader (Ex=548(7) and Em=600(10)).
Potency is the fitted concentration of half-maximal effect.

UniProt P04062, sequence (P04062 whole entry, looked up): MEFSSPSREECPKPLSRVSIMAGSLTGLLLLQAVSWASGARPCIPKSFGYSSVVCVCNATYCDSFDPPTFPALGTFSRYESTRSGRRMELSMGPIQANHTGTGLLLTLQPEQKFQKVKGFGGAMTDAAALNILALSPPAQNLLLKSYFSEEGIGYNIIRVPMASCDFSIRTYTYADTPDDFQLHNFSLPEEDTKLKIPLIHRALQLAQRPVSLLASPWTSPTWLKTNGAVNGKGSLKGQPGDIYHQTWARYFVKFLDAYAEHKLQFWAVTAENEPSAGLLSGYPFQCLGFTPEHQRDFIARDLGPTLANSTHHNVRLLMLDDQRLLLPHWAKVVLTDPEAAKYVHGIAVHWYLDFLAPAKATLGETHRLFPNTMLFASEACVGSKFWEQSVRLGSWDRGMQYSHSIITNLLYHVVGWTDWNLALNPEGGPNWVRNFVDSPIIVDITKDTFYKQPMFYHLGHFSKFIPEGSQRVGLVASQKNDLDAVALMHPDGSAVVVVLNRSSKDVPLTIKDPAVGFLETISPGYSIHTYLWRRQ

Potency, inactive:
CCOc1cc(C2c3c(n[nH]c3C)C(=O)N2c2ccc(C)cc2)ccc1O (configuration not stated) > 76.9 µM, Cc1ccc(N2CC(C(=O)NCc3cccnc3)CC2=O)cc1 (configuration not stated) > 76.9 µM, CCOC(=O)C1=C(CN2CCN(c3ccc(F)cc3)CC2)NC(=O)NC1c1cccs1 (configuration not stated) > 76.9 µM, Cn1c(=O)c2c(nc(CN3CCN(Cc4ccccc4)CC3)n2CCN2CCOCC2)n(C)c1=O > 76.9 µM, COc1ccc(N(CC(=O)NCc2cccc(OC)c2)S(=O)(=O)c2c(C)noc2C)cc1 > 76.9 µM, COc1cccc(OCCNC(=O)c2cccc(OC)c2)c1 > 76.9 µM, CC(C)c1nc(N2CCOCC2)c(C#N)c2c1CCCC2 > 76.9 µM, COc1cc(C2C(C(=O)N3CCOCC3)=C(C)NC3=C2C(=O)CCC3)ccc1OC(C)=O (configuration not stated) > 76.9 µM, CN1CC(=O)NC1=NC(=O)C12CC3CC(CC(C3)C1)C2 > 76.9 µM, CCCCc1nnc(NC(=O)CSc2nc(=O)cc(N)n2-c2ccccc2)s1 > 76.9 µM, CCC(C)Nc1nc2c(c(=O)n(C)c(=O)n2C)n1Cc1cccc(C)c1 (configuration not stated) > 76.9 µM, c1ccc(C2CC(c3cccs3)n3nnnc3N2)cc1 (configuration not stated) > 76.9 µM, Cc1cc(C(=O)OCC(=O)c2c(N)n(C)c(=O)n(C)c2=O)c(C)o1 > 76.9 µM, O=C(CSc1ncnc2ccccc12)NCc1ccco1 > 76.9 µM, O=C(c1ccccc1)N1CCCC(C(=O)N2CCCCCC2)C1 (configuration not stated) > 76.9 µM, O=C(Nc1ccccc1)NC1CCN(Cc2nnnn2C2CCCCC2)CC1 > 76.9 µM, Cc1ccc2c(c1)C1OCCC1C1N2C(=O)C2C(C(=O)O)C3C=CC21O3 (configuration not stated) > 76.9 µM, COc1cccc(C2=NOC(C(=O)NCc3ccc(F)cc3)C2)c1 (configuration not stated) > 76.9 µM, O=C(c1c(F)cccc1F)N1CCC(O)(c2cccnc2)CC1 > 76.9 µM, CCS(=O)(=O)N1CCC(C(=O)NC2CCCCCCC2)CC1 > 76.9 µM, Cc1ccc(NC(=O)CC2C(=O)NC3CCCCC3N2C(=O)c2ccc(F)cc2)cc1C (configuration not stated) > 76.9 µM, COc1ccc(C(=O)Nc2cccc(C(=O)N3CCCC3)c2)cc1 > 76.9 µM, CC(c1ccco1)N(C(=O)Nc1ccc(Cl)cc1)c1ccccn1 (configuration not stated) > 76.9 µM, CN(C)S(=O)(=O)c1cccc2nsnc12 > 76.9 µM, CCc1nnc(NS(=O)(=O)c2ccc(NS(=O)(=O)c3ccccc3)cc2)s1 > 76.9 µM, CCOC(=O)NCc1ccc(Cl)c(Cl)c1 > 76.9 µM, Cc1ccc(NC(=O)C2CC=CCC2C(=O)N2CCCCC2)cc1 (configuration not stated) > 76.9 µM, CC1=Nn2c(nnc2-c2cc(C)[nH]n2)SC1 > 76.9 µM, Cc1cn(COC/C=C/c2ccccc2)c(=O)[nH]c1=O > 76.9 µM, CN1CCn2c1nc(N1CCOCC1)nc2=O > 76.9 µM, NC1=C(c2ccc(F)cc2)C(=O)CS1 > 76.9 µM, O=C(c1cc(-c2ccccn2)nc2c(Cl)cccc12)N1CCN(C(=O)C2CCCO2)CC1 (configuration not stated) > 76.9 µM, COC(=O)CN(c1c(C)cccc1C)S(C)(=O)=O > 76.9 µM, Cn1c(C(=O)N2CCCC(C(=O)NCCCc3ccccc3)C2)cc2sccc21 (configuration not stated), CC(=O)Nc1ccc(N(C(=O)c2cnccn2)C(C(=O)NC2CCCCC2)c2ccc(O)cc2)cc1 (configuration not stated) > 76.9 µM, COC(=O)NCc1cccc(CNC(=O)OC)c1 > 76.9 µM, CCN(CC)S(=O)(=O)c1cc(C(=O)O)ccc1Cl > 76.9 µM, COc1ccc(S(=O)(=O)N(C)c2ccc(C(=O)N3CCOCC3)cc2)cc1 > 76.9 µM, Nc1nncn1C(=O)CCCN1C(=O)c2ccccc2C1=O > 76.9 µM, Cc1cc(C)nc(Sc2c(C)n[nH]c2C)n1 > 76.9 µM, Cc1ccc2c(c1)N(CC(=O)Nc1ccc3c(c1)OCCO3)C(=O)CO2 > 76.9 µM, O=C(Nc1cccnc1)c1noc2c1CCCCC2 > 76.9 µM, O=C(NCC(=O)N(Cc1cccs1)C(C(=O)NC1CCCC1)c1ccncc1)c1ccco1 (configuration not stated) > 76.9 µM, COc1ccc(CNC(=O)CSc2nc3nc(C)cc(C)n3n2)cc1 > 76.9 µM, Cn1cc(CN2CCc3ccccc3C2)c2ccccc21 > 76.9 µM, CCCN(CCC)CCCNS(=O)(=O)c1ccc2c(c1)oc(=O)n2C > 76.9 µM, CCN(C(=O)c1cn(CC)c(=O)c2cc(OC)c(OC)cc12)c1ccccc1C > 76.9 µM, O=C(O)C1CCN(S(=O)(=O)c2cccnc2)CC1 > 76.9 µM, CCCN(CCC)C(=O)Cn1ccc(=N)c2ccccc21 > 76.9 µM, CCn1c(SCC(=O)N2CCCc3ccccc32)nnc1-c1ccco1 > 76.9 µM, COc1ccc(CNc2cc(C)nc3ncnn23)c(OC)c1 > 76.9 µM, Cc1csc(NC(=O)C2C3C=CC(O3)C2C(=O)O)n1 (configuration not stated) > 76.9 µM, CCOC(=O)c1c(C)[nH]c(C(=O)Cn2nnc(-c3ccccc3)n2)c1C > 76.9 µM, COC(=O)c1ccc(NC(=O)CN2C(=O)CSC2=O)cc1 > 76.9 µM, Cc1nc2ccccn2c1P(=O)(N1CCCCC1)N1CCCCC1 > 76.9 µM, Cc1ccc(Nc2nc(Oc3ccc(OCc4ccccc4)nn3)nc(N3CCOCC3)n2)cc1 > 76.9 µM, CCc1ccc(-c2nnn(Cc3nn[nH]n3)n2)cc1 > 76.9 µM, CCC(C)(C)n1nnnc1C(c1ccccc1OC)N1CCSCC1 (configuration not stated), O=C(Nc1ccc(Br)cn1)c1ccc2nccnc2c1 > 76.9 µM, CC(C)(C)NC(=O)C(c1ccc(OCC(N)=O)cc1)N(C(=O)c1cccnc1)C1CC1 (configuration not stated) > 76.9 µM, CCC(C)NC(=O)c1c(C)cc(=O)oc1C (configuration not stated) > 76.9 µM, CCOCCNC(=O)c1ccccc1C(=O)NCCOCC > 76.9 µM, Cc1cccc(NC(=O)N(Cc2nc3ccccc3c(=O)[nH]2)C2CCCC2)c1 > 76.9 µM, COc1ccccc1N1CCN(CC(=O)Nc2cccc(F)c2)CC1 > 76.9 µM, O=C(O)CN1CCN(Cc2ccc(F)cc2Cl)C1=O > 76.9 µM, CCOC(=O)c1sc(SCC(=O)Nc2ccc(N(C)C)cc2)nc1N > 76.9 µM, [N-]=[N+]=CC(=O)C(Cc1ccccc1)N1C(=O)c2ccccc2C1=O (configuration not stated) > 76.9 µM, Cn1c(=O)c2c(nc(NCc3ccco3)n2CC(O)COc2ccccc2)n(C)c1=O (configuration not stated) > 76.9 µM, CCC(C)(C)n1nnnc1CN1CCN(c2nc3cc(OC)ccc3cc2C#N)CC1 > 76.9 µM, COc1ccc(C(=O)OCn2nnc3ccccc3c2=O)cc1OC > 76.9 µM, COc1ccc(NC(=O)CN2CCC3(O)CCCCC3C2c2ccccc2OC)cc1 (configuration not stated) > 76.9 µM, O=C(CCC1CCCC1)NCCCN1CCOCC1 > 76.9 µM, Cc1cc(NC(=O)CSc2nnc(COc3cccc(C)c3C)n2Cc2ccco2)no1 > 76.9 µM, CC(=O)c1cccc(S(=O)(=O)N2CCCC(c3nc(-c4ccc(C)o4)no3)C2)c1 (configuration not stated) > 76.9 µM, CCC(=O)N(Cc1ccc2c(c1)OCO2)Cc1cc2cc(OC)ccc2[nH]c1=O > 76.9 µM, COc1ccc(CCNC(=O)Cn2cnc3c(cnn3C(C)(C)C)c2=O)cc1OC > 76.9 µM, C=CCn1c(COc2cccc3ccc(C)nc23)nnc1SCC(=O)O > 76.9 µM, CCC(Oc1ccccc1)C(=O)N1CCN(c2ccccn2)CC1 (configuration not stated) > 76.9 µM, O=C(Cc1cn2ccsc2n1)NCCc1ccc(F)cc1 > 76.9 µM, CCCNC(=O)CCNC(=O)c1ccc(C(C)(C)C)cc1 > 76.9 µM, Cc1ccc(NC(=O)c2cc(-c3ccco3)on2)cc1 > 76.9 µM, COc1ccc(N/C(C)=C2/C(=O)C(=O)N(CCO)C2c2ccc(Br)cc2)cc1 (configuration not stated) > 76.9 µM, CN1CCN(CCCn2cnc3c(=O)oc4ccccc4c32)CC1 > 76.9 µM, COc1ccc(NC(=O)N2CCN(S(C)(=O)=O)CC2)cc1OC > 76.9 µM, Cc1nc(-c2cccc(S(=O)(=O)N3CCOCC3)c2)cs1 > 76.9 µM, COc1ccccc1C(=O)N1CCc2ccccc21 > 76.9 µM, COCCCNC(=O)CCn1c(=O)c2ccccc2n(CC(=O)Nc2ccc(C)cc2C)c1=O > 76.9 µM, CCN(CCCNC(=O)c1c(C)cc(=O)oc1C)c1cccc(C)c1 > 76.9 µM, COc1cccc(-n2c(C)nnc2SCC#N)c1 > 76.9 µM, O=C(c1ccncc1)c1nccn1-c1ccccn1 > 76.9 µM, O=C(Nc1ccc2c(c1)C(=O)N(C1CCCCC1)C2=O)C1CCCO1 (configuration not stated) > 76.9 µM, COCc1[nH]nc2c1C(c1ccsc1)C(C#N)=C(N)O2 (configuration not stated) > 76.9 µM

From PubChem BioAssay AID360 (National Center for Advancing Translational Sciences (NCATS), 2006)
